Laboratory results from PubChem BioAssay AID485281 (National Center for Advancing Translational Sciences (NCATS), 2010).
Hit rate of the full screen: of about 350,000 compounds, about 260 (0.074%) were called active. Inconclusive results, whose numbers are uncertain, are shown with a selection of clear calls. Calls follow the shape of the dose curve; as a rule, active = well fitted inhibition curve with a large enough effect; inconclusive = small, poorly fitted or top-dose-only effect; inactive = no such curve, though single readings can be large or run the other way. Potencies beside an inconclusive call are fits to weak or partial responses and may not hold up.

Each compound was assayed against Ferritin light chain (Equus caballus) (UniProt P02791) (assay: qHTS Assay for Identification of Novel General Anesthetics). Conditions: apoferritin/1-aminoanthracene competitive binding, fluorescence; activity change, negative = displacement: at 77.5 µM (top of the series).
Method in brief: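 In PBS, apoferritin at 10 uM is loaded with 1-AMA from a 50% saturated solution. After 10 min of compound exposure at ambient temperature, reduced 535 nm fluorescence indicates probe displacement.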
% is scaled to controls: 0 for no effect and ±100 for the full control effect; potency is read from the fitted curve at half-maximal effect; tags tell the direction and shape of the fitted curve.
Also: nearly all actives have a fitted effect of over 20% in size.

UniProt P02791, sequence (P02791 whole entry, looked up): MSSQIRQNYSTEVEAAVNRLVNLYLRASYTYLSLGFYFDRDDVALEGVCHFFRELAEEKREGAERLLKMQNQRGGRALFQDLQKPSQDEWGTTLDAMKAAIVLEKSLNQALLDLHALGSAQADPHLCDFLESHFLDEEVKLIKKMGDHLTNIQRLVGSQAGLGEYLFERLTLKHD

Activity change, negative = displacement, inactive:
CCOCCCNC(=O)c1[nH]c2cc(OC)ccc2c1Sc1ccccc1 -11%
CCN(CC)C(=O)Cn1c(=O)n(CCCCCC(=O)NCc2ccccc2)c(=O)c2sccc21 3.85%
COc1ccc(N2CCN(CC(O)COc3ccc(C(C)C)c(C)c3)CC2)cc1 (stereo not given) -14%
COCc1nnc(NC(=O)c2ccc(S(=O)(=O)N(C)c3ccccc3)cc2)o1 -3.37%
COc1ccc(C2(c3ccc(OC)cc3)NC(=O)N(CC(=O)NC(C)C)C2=O)cc1 -7.89%
CC(=O)Nc1ccccc1-c1nc2ccccc2n(C(C)C(=O)c2ccc(C)c(C)c2)c1=O (stereo not given) 16.9%

Potency, inconclusive:
O=C1C(Cl)=C(N2CCCCCC2)C(=O)N1c1ccccc1Cl 35.5 µM [inhibitor, single point]
Nn1c(Cc2cccc3ccccc23)nnc1SCc1ccccc1Cl 25.1 µM [inhibitor, partial curve]
Cn1c(=O)c2[nH]c(-c3cccnc3)nc2n(C)c1=O 14.1 µM [inhibitor, full curve, poor fit]
O=c1c2c(-c3ccccc3)csc2ncn1/N=C/c1ccc(O)c([N+](=O)[O-])c1 31.6 µM [inhibitor, partial curve]
COc1ccc(C(=O)NCC(=O)OCC(=O)NC(=O)NC2CCCCC2)cc1OC 14.1 µM [inhibitor, partial curve]
CCC(C)NS(=O)(=O)c1ccc(OC)c(Cl)c1Cl (stereo not given) 39.8 µM [inhibitor, partial curve]
Cc1nnc(SCC(=O)NCc2ccc(N(C)C)cc2)c2nn(-c3ccccc3)c(C)c12 50.1 µM [inhibitor, single point]
c1ccc2c(c1)ncn2Cc1nnc2sc(-c3ccc4c(c3)OCO4)nn12 28.2 µM [inhibitor, partial curve]
COc1ccc(S(=O)(=O)Nc2ccc(S(=O)(=O)N3CCCCC3)cc2)cc1C 12.6 µM [inhibitor, partial curve]
CCCCCCOc1ccc(OCC(O)CN2C(=O)NC(C)(C)C2=O)cc1 (stereo not given) 28.2 µM [inhibitor, partial curve]
Cc1ccc2c(c1)c(=O)c(C(=O)c1ccncc1)cn2CC(=O)Nc1ccc(C(C)C)cc1 14.1 µM [inhibitor, partial curve]
O/N=C1\CCCc2ccccc21 22.4 µM [inhibitor, partial curve]
Cc1ccc(CN2CC(C(=O)Nc3cccc(S(=O)(=O)N4CCCCC4)c3)CC2=O)cc1 (stereo not given) 56.2 µM [inhibitor, single point]
CC(C)C[C@H](NC(=O)c1nc[nH]c1C(=O)NCC(=O)OCc1ccccc1)C(=O)OC(C)(C)C 3.55 µM [inhibitor, partial curve]
CC(Cl)C(=O)NC(=O)NC12CC3CC(CC(C3)C1)C2 (stereo not given) 35.5 µM [inhibitor, partial curve]
Cc1ccc(SCCC(=O)OC(C(=O)NC(N)=O)C(C)C)cc1 (stereo not given) 35.5 µM [inhibitor, single point]
CCOC(=O)CSc1nc(COc2ccccc2)nc2ccccc12 17.8 µM [inhibitor, partial curve]
COc1cccc2c(N/N=C/c3ccccc3)cc(C)nc12 28.2 µM [inhibitor, single point]
CC(NC(=O)c1ccc(N2CCCC2)c([N+](=O)[O-])c1)c1ccc(S(N)(=O)=O)cc1 (stereo not given) 25.1 µM [inhibitor, partial curve]
O=C(NCc1nnc(SCC(=O)N2CCCCCC2)o1)c1ccc(F)cc1 22.4 µM [inhibitor, partial curve]
CC(C)(C)NC(=O)Cn1c(=O)oc2cc(S(=O)(=O)N3CCc4ccccc43)ccc21 12.6 µM [inhibitor, partial curve]
CN(C)c1cccc(C(=O)n2cc(C(=O)c3cc(F)ccc3O)cn2)c1 44.7 µM [inhibitor, single point]
O=C(N/N=C/C1C(c2ccccc2)C1(Cl)Cl)c1cccc(Cl)c1 (stereo not given) 14.1 µM [inhibitor, partial curve]
Cc1ccc(S(=O)(=O)NCCCCCC(=O)Nc2nccs2)cc1 35.5 µM [inhibitor, partial curve]
CCCCN(C(=O)CCC(=O)Nc1cc(C)on1)C(C(=O)NC1CCCC1)c1ccccc1OCC (stereo not given) 14.1 µM [inhibitor, partial curve]
Cc1ccc(S(=O)(=O)c2cn(CC(=O)Nc3ccc4c(c3)OCO4)c3ccc(F)cc3c2=O)cc1 6.31 µM [inhibitor, partial curve]
Cc1sc2ncn(CC(=O)NCc3ccco3)c(=O)c2c1-c1ccc(F)cc1 11.2 µM [inhibitor, partial curve]
CN(C)S(=O)(=O)Oc1cccc(C(=O)Nc2ccc(Cl)cc2)c1 12.6 µM [inhibitor, partial curve]
CCOC(=O)c1cc(C#N)c(Oc2ccccc2OC)nc1-c1ccccc1 44.7 µM [inhibitor, single point]
N#Cc1ccccc1NC(=O)CC1CCCCC1 20 µM [inhibitor, partial curve, poor fit]
COC(=O)CC1Nc2ccccc2SC1=O (stereo not given) 39.8 µM [inhibitor, partial curve]
CCc1ccc(C2C(C#N)=C(N)SC(N)=C2C#N)cc1 31.6 µM [inhibitor, partial curve]
NS(=O)(=O)c1cc(C(=O)OCC(=O)Nc2ccc(N3CCCCC3)cc2)ccc1Cl 14.1 µM [inhibitor, partial curve]
COc1ccc(-n2nc(C(=O)NCC(=O)N3CCCC(C)C3)c3ccccc3c2=O)cc1Cl (stereo not given) 39.8 µM [inhibitor, partial curve]
